About 50,000 (12%) of roughly 420,000 compounds were called active. Inconclusive means that the source gave no clear call. Such entries were picked first, then a sample of the others. Calls come from the whole dose curve; as a rule, active = well fitted inhibition curve with a large enough effect; inconclusive = small, poorly fitted or top-dose-only effect; inactive = flat fitted curve, though single readings scatter. No potency is given beside an inconclusive call; the fits are too rough.
Assay: qHTS for Inhibitors of human tyrosyl-DNA phosphodiesterase 1 (TDP1): qHTS in cells in presence of CPT; note: nearly all actives have a fitted effect of over 55% in size
Conditions: chicken DT40 Tdp1-/-;hTDP1 cells + 20 nM CPT, ATP luminescence, 48 h; series mostly up to 46.2 µM
How it was run: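 Cell growth measured by CellTiter-Glo luminescence after a minimum 48 h, 37 C compound exposure with 20 nM CPT in Tdp1-knockout DT40 cells stably expressing hTDP1, seeded 400/well; qHTS titration format.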
Potency is the fitted concentration of half-maximal effect; tags give direction and shape of the fitted curve.

Row | SMILES | Potency
1 | CCOC(=O)c1cccc(NC(=O)c2ccc3c(c2)nnn3C2CCCC2)c1 | inconclusive [inhibitor, single point]
2 | COc1cccc(C(=O)Nc2ccc(Cl)c(-c3nc4ccccc4[nH]3)c2)c1 | inconclusive [inhibitor, single point]
3 | O=C(c1cc(-c2ccc(O)cc2)on1)N1CCc2ccccc2C1 | inconclusive [inhibitor, single point]
4 | CCOc1ccc(N2CC(NC(=O)c3ccc4ccccc4c3)CC2=O)cc1 (stereo not given) | inconclusive [inhibitor, full curve, poor fit]
5 | CC1(C(=O)NS(=O)(=O)c2ccc(C#N)cc2)CCN1C(=O)CC1CC1 (stereo not given) | inactive
6 | CCOC(=O)c1ccccc1NC(=O)N1CCn2c(C)ccc2C1CC (stereo not given) | active: 23.1 µM
7 | Cc1ccnc(NC(=O)c2ccc(Cl)s2)c1 | inactive
8 | COc1cccc(-c2nc(NCc3cnc(C)cn3)c3ccccc3n2)c1 | inactive
9 | CCCCCOc1ccc(Cn2ccnc2)cc1[N+](=O)[O-] | inconclusive [inhibitor, single point]
10 | COC(=O)C1=CNC=C(C(=O)OC)C1c1ccc(C(=O)OC)cc1 | inactive
11 | COc1ccc2c(c1)CC(NC(=O)Nc1cc(Cl)ccc1OC)CO2 (stereo not given) | active: 23.1 µM
12 | O=C(Nc1ccccc1)c1nc[nH]c1C(=O)NCCCCCCNC(=O)c1[nH]cnc1C(=O)Nc1ccccc1 | active: 7.31 µM
13 | C[C@H](CO)N1C[C@H](C)[C@@H](CN(C)S(=O)(=O)c2ccc(F)cc2)Oc2c(NS(=O)(=O)c3ccc(F)cc3)cccc2C1=O | inconclusive [inhibitor, single point]
14 | CC1CCN(CC(=O)Nc2ccccc2-c2ccccc2)CC1 | active: 18.4 µM
15 | COc1cc(NC(=O)c2cc(-c3cccnc3)nc3ccc(Br)cc23)cc(OC)c1 | inconclusive [inhibitor, single point]
16 | CC(C)(C)OC(=O)N1CCC(NC(=O)c2[nH]cnc2C(=O)Nc2cccc(Cl)c2)CC1 | inconclusive [inhibitor, single point]
17 | CC(=O)c1ccc(N2CCN(S(=O)(=O)c3ccc4c(c3)CC(C)N4C(=O)C3CCC3)CC2)cc1 (stereo not given) | active: 7.31 µM
18 | O=C1C2CC=CCC2C(=O)N1c1ccc(N2CCN(c3ccccn3)CC2)c([N+](=O)[O-])c1 (stereo not given) | inconclusive [inhibitor, single point]
19 | CCc1ccc(OCCCSc2nc(-c3ccc(C(C)(C)C)cc3)nc3cc(=O)[nH]n23)cc1 | inconclusive [inhibitor, single point]
20 | Cc1ccc(-c2nn3c(C)nnc3c3ccccc23)cc1S(=O)(=O)N1CCN(CCO)CC1 | inconclusive [inhibitor, single point]
21 | Cc1nc(NC(=O)CC(C)C)sc1-c1csc(Nc2ccc(Cl)cc2)n1 | inconclusive [inhibitor, single point]
22 | CC1CCCN(CCCNC(=O)C2CCCN(c3ncnc4c3nc3n4CCCCC3)C2)C1 (stereo not given) | inactive
23 | O=C(/C=C/c1ccc(S(=O)(=O)N2CCOCC2)cc1)NCCc1ccc(C(F)(F)F)cc1 | inconclusive [inhibitor, partial curve]
24 | NC(=O)c1nsc(C(=O)N(Cc2ccco2)C(C(=O)NCC2CCCO2)c2ccc(F)cc2)c1N (stereo not given) | inactive

Row | SMILES | Potency
25 | CCN1CCN(c2ccc(NC(=O)COc3ccccc3Cl)cc2)CC1 | inconclusive [inhibitor, single point]
26 | CCCN(CCC)C(=O)CSc1nc2ccsc2c(=O)n1NC(=O)c1ccccc1 | inactive
27 | CCC(C)[C@@H](C(=O)N1CCNCC1)n1cc(CCCCN)nn1 (stereo not given in full) | inactive
28 | Cc1ccc(S(=O)(=O)c2cn(C)c3cc(N4CCCCCC4)c(F)cc3c2=O)cc1 | inconclusive [inhibitor, single point]
29 | O=C(NCC1CCCO1)C1CCCN1C(=O)Nc1ccc(Cl)c(Cl)c1 (stereo not given) | inactive
30 | CCOC(=O)c1c(C)[nH]c(C(=O)CN2C(=O)NC(C)(C)C2=O)c1C | inactive
31 | CS(=O)(=O)Nc1cccc(S(=O)(=O)N2CCN(C(=O)c3ccccc3)CC2)c1 | inactive
32 | COC(=O)c1ccc(COC(=O)c2ccc(SC)cc2OC)cc1 | inconclusive [inhibitor, single point]
33 | CCN1CCC2(CC1)N=C(c1ccc(F)cc1)C(=S)N2 | inactive
34 | O=C(O)C1C2C=CC(C2)C1C(=O)NCc1ccoc1 (stereo not given) | inconclusive [inhibitor, partial curve, poor fit]
35 | CCCCN1CC[C@H]2C=CC[C@@H](C(=O)N3CCN(c4ccccc4)CC3)[C@H]2C1=O | inconclusive [inhibitor, single point]
36 | OC(COc1ccc2cc(Br)ccc2c1)Cn1ccnc1 (stereo not given) | inconclusive [inhibitor, single point]
37 | CC(C(=O)N1CCc2ccccc21)N1CCc2ccccc2C1 (stereo not given) | inconclusive [inhibitor, partial curve]
38 | COc1ccc(CC(NC(C)=O)C(=O)NC2CCN(C(=O)c3ccccc3F)CC2)cc1 (stereo not given) | inactive
39 | Cc1ccc(/C=N/N=C2/NC(=O)C(CC(=O)N3CCOCC3)S2)cc1 (stereo not given) | inactive
40 | CCc1ccc(Nc2n[n+](-c3ccccc3)c(-c3cccc(Cl)c3Cl)s2)cc1 | inconclusive [inhibitor, single point]
41 | CC(=O)C1=C(C)NC(SCC(=O)c2ccc(Cl)cc2Cl)=C(C#N)C1c1ccco1 (stereo not given) | inconclusive [inhibitor, single point]
42 | Cc1ccccc1NC(=O)c1ccc2nc(Cc3ccccc3)oc2c1 | inconclusive [inhibitor, single point]
43 | O=C(O)c1ccccc1/C=N/n1c(C2CCCCC2)n[nH]c1=S | inactive
44 | COc1ccccc1-c1cc(NC(C)=O)c2ncc(-c3ccc(S(C)(=O)=O)cc3)n2c1 | inconclusive [inhibitor, single point]
45 | COc1ccc([C@H]2CC(=O)C=C(/C=C/c3ccc(Cl)cc3)C2)cc1 | inconclusive [inhibitor, single point]
46 | Cc1ccc(CN2C(=O)c3ccccc3C2c2nnnn2-c2ccc3c(c2)OCCO3)cc1 (stereo not given) | inconclusive [inhibitor, single point]
47 | CCOC(=O)N1CCC(NC(=O)c2cc3c(=O)n(C)c4ccccc4c3n2C)CC1 | active: 20.6 µM
48 | C(=C\c1ccccc1)/CN1CCN(C(c2ccnc3ccccc23)c2nnnn2C2CCCC2)CC1 (stereo not given) | inconclusive [inhibitor, single point]

Row | SMILES | Potency
49 | Cn1c(SCc2ccc(F)cc2)nc2c([nH]c3ccccc32)c1=O | inconclusive [inhibitor, single point]
50 | C=Cc1ccc(Cn2c(C(=O)O)c(CNCc3cccs3)c3ccc(C)cc32)cc1 | inconclusive [inhibitor, single point]
51 | Cc1ccc(Cn2c(=O)n(-c3ccccc3)c(=O)c3ccc(C(=O)NCc4ccco4)cc32)cc1 | active: 11.6 µM
52 | COc1ccc(CNC(=O)Cc2csc(Nc3nc(=S)[nH]c4ccccc34)n2)cc1 | inconclusive [inhibitor, partial curve]
53 | COc1ccccc1C(=O)Nc1c(C(=O)N(CCN(C)C)Cc2ccco2)oc2ccccc12 | active: 9.2 µM
54 | N#C/C(=C/Nc1ccccc1C(=O)O)C(N)=O | inactive
55 | Cc1onc(-c2c(F)cccc2Cl)c1C(=O)c1ccccc1O | inactive
56 | CN(C)CCCN(C(=O)c1ccc(S(=O)(=O)N(C)Cc2ccccc2)cc1)c1nc2c(F)cccc2s1 | inconclusive [inhibitor, single point]
57 | COc1cc(NC(=O)c2ccc(CNc3c(N4CCCC4)c(=O)c3=O)cc2)cc(OC)c1OC | inactive
58 | COc1ccc(NC(=O)c2ccccc2[N+](=O)[O-])cc1 | inactive
59 | CC(=O)NC(CC(=O)NNC(=O)COc1c(C)cccc1C)c1ccccc1 (stereo not given) | inactive
60 | CCOc1ccc(NC(=O)c2cc3c(-c4ccccc4F)nn(C)c3s2)cc1 | inconclusive [inhibitor, single point]
61 | COC(=O)c1ccc(NC(=O)COc2coc(CN3CCc4ccccc43)cc2=O)cc1 | inactive
62 | COc1ccccc1CNC(=O)COc1ccc(S(=O)(=O)N2CCOCC2)cc1C | inactive
63 | O=C1NC(c2ccc(Br)cc2)Oc2ccccc21 (stereo not given) | inactive
64 | CC(=O)c1sc(-c2ccc(F)cc2)cc1NS(=O)(=O)c1ccc(C)cc1 | inactive
65 | COc1ccccc1NC(=O)N(C)C[C@@H]1OCc2ccccc2-c2c(n(C)c3ccccc23)C(=O)N([C@H](C)CO)C[C@@H]1C | active: 20.6 µM
66 | COc1ccc(C2=NO[C@@H]3C(=O)N(c4ccc(C)cc4C)C(=O)[C@H]23)cc1OC | active: 25.9 µM
67 | CCOC1=C2[C@@H](CN(S(=O)(=O)c3ccc(C)cc3)[C@H]2c2ccc(Cl)cc2)[C@H]2C(=O)N(c3ccccc3)C(=O)[C@H]2C1 | inactive
68 | OCCN(Cc1ccccc1)Cc1cccc(Cl)c1Cl | inconclusive [inhibitor, single point]
69 | Cc1c(NC(=O)COC(=O)Cn2cc(C(F)(F)F)ccc2=O)cccc1[N+](=O)[O-] | inconclusive [inhibitor, partial curve, poor fit]
70 | CCCCNC(=O)c1cc2c(=O)n3cccc(C)c3nc2n(Cc2ccncc2)c1=N | inconclusive [inhibitor, single point]
